Reference: paper PMC10003087, “VRK1 Kinase Activity Modulating Histone H4K16 Acetylation Inhibited by SIRT2 and VRK-IN-1” (International Journal of Molecular Sciences, 2023)
Changes are numbered by the printed parent chain. No constants are given. Whether binding was seen depends on the method and setting. For part of these data: Binding seen in cells or lysates may run through a third protein. Some results given as binding are weak or reduced against the parent protein; the word gives no strength. Sequences can lack the tags named with a protein. One block for each binder: values may come before it.

How the values were obtained:
[1] = target: T1, VRK1-HA (human) (UniProt Q99986); experiment: co-IP; HEK293T lysates (50 mM Tris HCl pH 8.0, 150 mM NaCl, 1% triton X-100, 1 mM EDTA), 0.5-1 mg protein, antibody 6-8 h at 4 °C, Protein G-agarose overnight; reciprocal immunoprecipitations (anti-VRK1, anti-FLAG, anti-HA)
T1 sequence: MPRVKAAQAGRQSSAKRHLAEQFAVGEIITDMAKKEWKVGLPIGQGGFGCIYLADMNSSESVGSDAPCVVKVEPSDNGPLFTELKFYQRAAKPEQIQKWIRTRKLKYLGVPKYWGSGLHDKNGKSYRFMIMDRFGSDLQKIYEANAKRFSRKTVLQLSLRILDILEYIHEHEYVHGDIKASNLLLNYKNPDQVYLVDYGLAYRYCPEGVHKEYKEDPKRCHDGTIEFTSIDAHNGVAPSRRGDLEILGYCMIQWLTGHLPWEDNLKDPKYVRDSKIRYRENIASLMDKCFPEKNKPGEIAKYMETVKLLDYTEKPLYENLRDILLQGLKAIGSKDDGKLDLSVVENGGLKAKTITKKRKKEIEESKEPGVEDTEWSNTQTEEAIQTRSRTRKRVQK

[2] = target: T2, endogenous VRK1 (human (endogenous in HEK293T)) (UniProt Q99986); experiment: as above
T2 sequence: T1 sequence

[3] = target: T3, GST-VRK1 C-terminal regulatory domain (residues 267-396) (human) (UniProt Q99986); experiment: pull-down; GST pull-down; purified GST-VRK1 (or GST-VRK1 constructs) and His-SIRT2 in 20 mM Tris-HCl pH 7.5, 5 mM MgCl2, 0.5 mM DTT, 150 mM KCl, 25 µL, 37 °C 45 min, then Glutathione Sepharose 4B beads overnight at 4 °C; increasing amounts of His-SIRT2; both purified
T3 sequence: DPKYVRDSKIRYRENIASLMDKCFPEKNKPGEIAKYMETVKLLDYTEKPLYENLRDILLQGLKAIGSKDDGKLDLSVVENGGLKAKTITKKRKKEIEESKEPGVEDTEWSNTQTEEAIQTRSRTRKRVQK

[4] = target: T4, SIRT2-Flag (human) (UniProt Q8IXJ6); experiment: co-IP; HEK293T lysates (50 mM Tris HCl pH 8.0, 150 mM NaCl, 1% triton X-100, 1 mM EDTA), 0.5-1 mg protein, antibody 6-8 h at 4 °C, Protein G-agarose overnight; reciprocal immunoprecipitations (anti-VRK1, anti-FLAG, anti-HA)
T4 sequence: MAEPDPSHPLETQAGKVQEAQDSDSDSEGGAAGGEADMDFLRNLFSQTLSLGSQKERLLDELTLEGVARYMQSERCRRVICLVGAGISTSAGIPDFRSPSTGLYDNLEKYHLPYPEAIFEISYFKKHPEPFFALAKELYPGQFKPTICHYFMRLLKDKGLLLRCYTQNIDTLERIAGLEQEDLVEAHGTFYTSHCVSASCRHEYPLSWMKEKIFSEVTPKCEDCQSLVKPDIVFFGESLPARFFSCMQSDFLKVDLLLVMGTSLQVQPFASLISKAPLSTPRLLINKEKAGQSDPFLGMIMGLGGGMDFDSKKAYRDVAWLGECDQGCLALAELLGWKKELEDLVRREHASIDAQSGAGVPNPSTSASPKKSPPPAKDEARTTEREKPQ

[5] = target: T5, SIRT2-HA with S368 mutated to Ala (human) (UniProt Q8IXJ6); experiment: as above
T5 sequence: T4 sequence with S368A

[6] = target: T6, SIRT2-HA with S368 mutated to Glu (human) (UniProt Q8IXJ6); experiment: as above
T6 sequence: T4 sequence with S368E

binding [1]: binds | binding [2]: binds
B1: SIRT2-Flag (enzyme, UniProt Q8IXJ6 1-389)
chain: T4 sequence

binding [2]: binds
B2: SIRT2-HA with S368 mutated to Ala (enzyme, UniProt Q8IXJ6 1-389)
chain: T4 sequence with S368A

binding [2]: binds
B3: SIRT2-HA with S368 mutated to Glu (enzyme, UniProt Q8IXJ6 1-389)
chain: T4 sequence with S368E

binding [3]: no binding
B4: SIRT2-his (enzyme, human, UniProt Q8IXJ6 1-389, looked up)
chain: T4 sequence

binding [4]: binds | binding [5]: binds | binding [6]: binds
B5: endogenous VRK1 (enzyme, UniProt Q99986 1-396)
chain: T1 sequence

binding [4]: binds
B6: VRK1-HA (enzyme, UniProt Q99986 1-396)
chain: T1 sequence
